The term Ki denotes a dissociation constant, usually derived from enzyme kinetics or from competition with a known ligand. For orientation: EC50 means the concentration needed to bring the measured effect to its halfway point.

Like-named read-outs stand apart in the source and are kept apart here.

The target in one test is XOR. Conditions: cited from earlier work.
The target in another test is human AO (Homo sapiens, UniProt Q06278). To be noted: human liver cytosol, DACA 6 μM.
Test [1] has as its target xanthine oxidase (HS6B-XO) (Bos taurus, UniProt P80457). Kind of test: XO-catalyzed nitrite reduction to NO.
UniProt P80457, sequence (P80457 whole entry): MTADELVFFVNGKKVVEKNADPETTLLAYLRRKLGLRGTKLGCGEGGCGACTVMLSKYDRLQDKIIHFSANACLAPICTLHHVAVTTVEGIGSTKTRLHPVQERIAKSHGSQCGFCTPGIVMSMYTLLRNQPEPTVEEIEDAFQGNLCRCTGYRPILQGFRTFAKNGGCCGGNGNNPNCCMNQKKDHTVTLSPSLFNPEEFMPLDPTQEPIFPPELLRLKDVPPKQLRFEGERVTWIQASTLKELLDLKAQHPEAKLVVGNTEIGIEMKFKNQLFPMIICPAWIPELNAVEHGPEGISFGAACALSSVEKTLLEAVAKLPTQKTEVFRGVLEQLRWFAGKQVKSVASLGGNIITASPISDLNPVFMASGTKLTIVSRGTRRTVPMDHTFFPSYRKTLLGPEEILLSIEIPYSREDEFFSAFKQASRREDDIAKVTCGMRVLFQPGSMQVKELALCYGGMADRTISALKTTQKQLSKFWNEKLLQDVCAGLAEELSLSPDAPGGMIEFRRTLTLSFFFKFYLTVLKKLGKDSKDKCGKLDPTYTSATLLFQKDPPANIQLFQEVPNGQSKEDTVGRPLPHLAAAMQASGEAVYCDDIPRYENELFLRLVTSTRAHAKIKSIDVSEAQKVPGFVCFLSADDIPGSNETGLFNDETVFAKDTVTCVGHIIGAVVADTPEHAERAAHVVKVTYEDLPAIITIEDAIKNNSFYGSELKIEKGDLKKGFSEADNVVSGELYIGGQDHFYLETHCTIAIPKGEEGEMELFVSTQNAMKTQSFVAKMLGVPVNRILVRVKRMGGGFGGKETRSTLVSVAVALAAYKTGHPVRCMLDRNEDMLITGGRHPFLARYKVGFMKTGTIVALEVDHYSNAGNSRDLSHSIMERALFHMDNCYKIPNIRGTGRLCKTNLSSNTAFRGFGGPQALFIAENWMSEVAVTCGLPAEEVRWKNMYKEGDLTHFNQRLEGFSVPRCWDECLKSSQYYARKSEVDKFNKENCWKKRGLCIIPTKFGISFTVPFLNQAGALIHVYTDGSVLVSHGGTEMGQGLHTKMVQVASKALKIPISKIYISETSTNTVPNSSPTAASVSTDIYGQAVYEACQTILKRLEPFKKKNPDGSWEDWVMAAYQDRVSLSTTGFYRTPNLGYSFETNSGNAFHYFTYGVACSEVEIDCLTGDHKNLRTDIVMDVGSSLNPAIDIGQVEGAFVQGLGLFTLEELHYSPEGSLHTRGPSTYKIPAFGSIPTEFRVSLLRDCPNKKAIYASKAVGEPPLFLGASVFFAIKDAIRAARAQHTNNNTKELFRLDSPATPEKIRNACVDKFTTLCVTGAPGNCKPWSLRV
Another test has as its target xanthine oxidase (Bos taurus, UniProt P80457). Kind of test: XO-catalyzed xanthine oxidation to uric acid.

UniProt Q06278, sequence (Q06278 whole entry): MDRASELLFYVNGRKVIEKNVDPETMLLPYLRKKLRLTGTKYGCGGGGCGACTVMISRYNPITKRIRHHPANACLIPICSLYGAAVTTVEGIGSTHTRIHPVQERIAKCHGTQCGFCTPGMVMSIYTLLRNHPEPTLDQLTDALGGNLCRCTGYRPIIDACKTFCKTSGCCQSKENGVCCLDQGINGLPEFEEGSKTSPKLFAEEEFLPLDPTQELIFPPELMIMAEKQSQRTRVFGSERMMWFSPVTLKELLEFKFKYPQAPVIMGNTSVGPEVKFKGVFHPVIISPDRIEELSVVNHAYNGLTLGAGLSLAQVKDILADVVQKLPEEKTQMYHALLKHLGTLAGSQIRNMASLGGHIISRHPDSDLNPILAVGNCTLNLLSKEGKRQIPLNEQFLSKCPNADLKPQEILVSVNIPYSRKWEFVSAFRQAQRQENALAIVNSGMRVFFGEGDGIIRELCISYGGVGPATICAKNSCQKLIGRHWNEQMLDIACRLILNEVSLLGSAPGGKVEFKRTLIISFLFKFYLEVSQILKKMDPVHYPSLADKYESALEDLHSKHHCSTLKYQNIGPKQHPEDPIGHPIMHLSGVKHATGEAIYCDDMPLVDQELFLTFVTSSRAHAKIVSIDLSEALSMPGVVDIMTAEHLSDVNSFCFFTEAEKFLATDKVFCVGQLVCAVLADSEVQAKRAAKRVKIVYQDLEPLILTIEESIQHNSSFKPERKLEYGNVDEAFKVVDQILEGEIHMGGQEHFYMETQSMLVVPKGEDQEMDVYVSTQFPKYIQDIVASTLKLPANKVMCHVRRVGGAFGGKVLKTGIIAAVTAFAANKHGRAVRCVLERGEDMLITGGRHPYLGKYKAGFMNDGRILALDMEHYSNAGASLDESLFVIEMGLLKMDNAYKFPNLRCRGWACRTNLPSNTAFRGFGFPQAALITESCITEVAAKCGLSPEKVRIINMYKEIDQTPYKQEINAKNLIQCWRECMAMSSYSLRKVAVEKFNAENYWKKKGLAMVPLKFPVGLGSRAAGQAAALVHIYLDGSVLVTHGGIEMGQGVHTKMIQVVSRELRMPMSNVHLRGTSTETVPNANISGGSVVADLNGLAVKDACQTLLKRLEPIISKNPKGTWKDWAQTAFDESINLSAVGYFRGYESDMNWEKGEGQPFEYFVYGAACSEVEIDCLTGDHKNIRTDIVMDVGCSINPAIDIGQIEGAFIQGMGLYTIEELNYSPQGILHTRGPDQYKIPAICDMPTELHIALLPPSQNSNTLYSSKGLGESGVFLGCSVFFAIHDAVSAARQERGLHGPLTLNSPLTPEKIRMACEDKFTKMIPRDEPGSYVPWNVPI

With `Oc1ncnc2[nH]ncc12` [allopurinol], at XOR (read-out: Ki, inhibition of XO), the Ki is 0.7 µM.

`Cc1nc(-c2ccc(OCC(C)C)c(C#N)c2)sc1C(=O)O` [febuxostat]: on human AO, the “concentration for complete inhibition of AO” value is “over 1 mM”. Also, the Ki on XOR (read-out: Ki, inhibition of XOR) was 0.00096 µM.

In the case of `CC1=CC(=O)c2ccccc2C1=O` [menadione], the concentration giving a half-maximal response (EC50) in test [1] is 0.06 µM. Besides, the “effect on XO-catalyzed uric acid production” value on xanthine oxidase was “no effect”.

The record behind these values is PMC4260934 (Nitric oxide : biology and chemistry / official journal of …, 2014).
